Measured values reported in publication PMC5153247.
Changes are numbered by the printed parent chain. Names may count otherwise. These are yes or no findings as the source states them, for the method shown. In cells and extracts the contact can be indirect. Some binding calls cover weakened binding; strength is not graded here. Where a sequence is shown, tags or fusion partners need not be part of it. Each block holds one molecule with its values, some of them ahead of it.

The chains behind the UniProt entries cited, without tags or fusion partners. Where a name states a change or a piece, a line headed by the entry shows the natural chain unless it says otherwise. Residues count along the entry.
UniProt P31749: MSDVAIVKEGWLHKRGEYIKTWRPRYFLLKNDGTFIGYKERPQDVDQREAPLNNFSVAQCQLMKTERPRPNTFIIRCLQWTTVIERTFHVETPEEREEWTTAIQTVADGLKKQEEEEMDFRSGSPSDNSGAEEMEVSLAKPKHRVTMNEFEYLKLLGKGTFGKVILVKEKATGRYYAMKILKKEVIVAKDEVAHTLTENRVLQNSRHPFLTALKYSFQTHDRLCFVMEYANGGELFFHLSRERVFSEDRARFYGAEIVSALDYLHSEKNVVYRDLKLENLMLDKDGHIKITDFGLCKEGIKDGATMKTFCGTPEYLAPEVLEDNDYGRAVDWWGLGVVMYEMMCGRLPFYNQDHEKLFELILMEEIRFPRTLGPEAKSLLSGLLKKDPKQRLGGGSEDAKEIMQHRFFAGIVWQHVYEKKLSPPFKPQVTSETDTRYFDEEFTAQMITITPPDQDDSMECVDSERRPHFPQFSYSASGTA
mammalian GST-Akt fragment: PH domain of Akt: residues 5-108 of P31749
UniProt Q9UM11: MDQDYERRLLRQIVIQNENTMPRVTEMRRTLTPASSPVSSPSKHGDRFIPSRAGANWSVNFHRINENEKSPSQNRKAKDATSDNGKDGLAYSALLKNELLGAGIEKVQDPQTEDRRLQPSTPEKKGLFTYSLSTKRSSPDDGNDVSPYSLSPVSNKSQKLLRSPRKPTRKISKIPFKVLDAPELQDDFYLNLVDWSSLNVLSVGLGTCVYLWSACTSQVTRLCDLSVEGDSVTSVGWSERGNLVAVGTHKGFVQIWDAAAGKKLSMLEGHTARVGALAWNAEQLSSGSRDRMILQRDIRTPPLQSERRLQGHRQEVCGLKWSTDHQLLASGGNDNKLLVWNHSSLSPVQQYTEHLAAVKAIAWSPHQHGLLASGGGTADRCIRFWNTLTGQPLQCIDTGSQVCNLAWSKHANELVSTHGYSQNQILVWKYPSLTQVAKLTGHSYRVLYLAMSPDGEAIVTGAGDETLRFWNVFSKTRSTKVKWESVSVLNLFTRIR
UniProt P26043: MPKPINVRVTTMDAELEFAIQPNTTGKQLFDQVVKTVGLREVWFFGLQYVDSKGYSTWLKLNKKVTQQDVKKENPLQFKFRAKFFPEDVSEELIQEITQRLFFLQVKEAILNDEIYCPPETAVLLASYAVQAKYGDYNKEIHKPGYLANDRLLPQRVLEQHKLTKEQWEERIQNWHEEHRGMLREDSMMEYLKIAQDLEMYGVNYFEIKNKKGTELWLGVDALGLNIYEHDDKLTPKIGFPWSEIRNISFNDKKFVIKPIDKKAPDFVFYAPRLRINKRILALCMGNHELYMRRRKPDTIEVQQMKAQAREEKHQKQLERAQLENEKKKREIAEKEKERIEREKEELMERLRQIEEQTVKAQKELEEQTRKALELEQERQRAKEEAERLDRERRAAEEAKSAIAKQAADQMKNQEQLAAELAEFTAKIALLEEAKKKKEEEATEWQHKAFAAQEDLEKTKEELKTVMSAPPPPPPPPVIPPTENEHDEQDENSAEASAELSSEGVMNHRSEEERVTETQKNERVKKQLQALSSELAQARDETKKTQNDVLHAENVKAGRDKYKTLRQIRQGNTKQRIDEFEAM

Legend:
[1] = target: T1, purified glutathione S-transferase (GST)-Id2 protein (UniProt P41136); experiment: pull-down; lysates of PC12 cells transfected with myc-Akt incubated with purified GST-Id proteins and GST-beads for 3 hr at 4°C with gentle agitation; only the target purified
T1 sequence: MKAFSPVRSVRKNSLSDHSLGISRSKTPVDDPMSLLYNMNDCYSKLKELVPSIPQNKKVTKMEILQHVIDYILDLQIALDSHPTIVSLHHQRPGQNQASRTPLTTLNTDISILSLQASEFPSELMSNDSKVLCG

[2] = target: T2, purified GST-Id1 (UniProt P20067); experiment: as above
T2 sequence: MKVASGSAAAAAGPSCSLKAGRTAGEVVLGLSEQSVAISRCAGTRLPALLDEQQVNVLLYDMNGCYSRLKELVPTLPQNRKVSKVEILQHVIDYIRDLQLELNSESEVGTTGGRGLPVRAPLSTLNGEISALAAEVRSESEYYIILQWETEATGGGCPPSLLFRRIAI

[3] = target: T3, purified GST-Id3 (UniProt P41133); experiment: as above
T3 sequence: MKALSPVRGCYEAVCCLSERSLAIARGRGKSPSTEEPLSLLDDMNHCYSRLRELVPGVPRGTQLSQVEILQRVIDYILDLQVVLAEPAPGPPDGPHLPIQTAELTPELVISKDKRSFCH

[4] = target: T4, purified GST-Id4 (UniProt P41139); experiment: as above
T4 sequence: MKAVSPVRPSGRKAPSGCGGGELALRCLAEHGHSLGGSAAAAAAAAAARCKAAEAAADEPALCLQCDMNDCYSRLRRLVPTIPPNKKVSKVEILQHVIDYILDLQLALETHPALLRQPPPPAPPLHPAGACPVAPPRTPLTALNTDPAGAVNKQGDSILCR

[5] = target: T5, GST-Id2 (expressed in PC12 cells) (UniProt P41136); experiment: pull-down; PC12 cells transfected with GST-Id2, GFP-cdh1 and increasing amounts of myc-Akt (2 or 4 μg); lysates subjected to GST pull-down
T5 sequence: T1 sequence

[6] = target: Flag-Akt1 (UniProt P31749); experiment: co-IP; Flag-Akt1, 2 or 3 transfected into HEK293T cells together with GFP-Id2; anti-Flag IP followed by IB
[7] = target: HA-Cdh1 (UniProt Q9UM11); experiment: co-IP; HA-cdh1 co-transfected with GFP-Id2 WT or mutants into 293T cells (legend; text says PC12); IP with HA antibody, Id2 detected by anti-GFP antibody
[8] = target: T6, HA-E47 (UniProt P15923); experiment: co-IP; HA-E47 co-transfected with GFP-Id2 WT or mutants into PC12 cells; immunoprecipitation with anti-HA antibody
T6 sequence: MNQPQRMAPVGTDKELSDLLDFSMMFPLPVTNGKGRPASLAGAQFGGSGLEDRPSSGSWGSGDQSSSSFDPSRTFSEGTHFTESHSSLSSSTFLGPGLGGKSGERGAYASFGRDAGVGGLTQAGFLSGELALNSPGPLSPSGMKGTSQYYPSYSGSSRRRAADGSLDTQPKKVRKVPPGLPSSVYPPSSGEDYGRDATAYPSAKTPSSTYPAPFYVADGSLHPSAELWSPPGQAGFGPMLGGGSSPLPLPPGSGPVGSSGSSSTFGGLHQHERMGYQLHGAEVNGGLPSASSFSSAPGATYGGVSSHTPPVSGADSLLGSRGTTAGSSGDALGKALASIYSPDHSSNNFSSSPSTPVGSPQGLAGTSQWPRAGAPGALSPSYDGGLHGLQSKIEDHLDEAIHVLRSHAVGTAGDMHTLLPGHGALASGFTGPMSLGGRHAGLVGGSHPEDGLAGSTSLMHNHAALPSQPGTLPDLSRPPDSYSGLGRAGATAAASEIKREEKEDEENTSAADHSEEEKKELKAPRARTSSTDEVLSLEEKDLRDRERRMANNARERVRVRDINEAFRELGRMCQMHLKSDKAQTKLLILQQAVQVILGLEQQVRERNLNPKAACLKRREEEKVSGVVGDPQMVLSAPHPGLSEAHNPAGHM

[9] = target: mammalian GST-Akt fragment: PH domain of Akt (UniProt P31749); experiment: pull-down; Flag-Id2 co-transfected with mammalian GST-Akt fragments into 293T cells; lysates subjected to GST pull-down and IB
[10] = target: GST-radixin (UniProt P26043); experiment: pull-down; GST pull-down using lysates of PC12 cells transfected with GST-radixin and Id2 constructs (called in vitro binding assay); also with depletion of Akt by shRNA

Molecule: GFP-Cdh1 (from UniProt Q9UM11 1-496)
- binding [5]: binds

B2: GFP-Id2 S14A (293T) (protein, UniProt P41136 1-134)
chain: T1 sequence with S14A
- binding [7]: binds

B4: GFP-Id2 S14D (293T) (protein, UniProt P41136 1-134)
chain: T1 sequence with S14D
- binding [7]: binds weakly

B5: Id2-V68P (HLH domain mutant) (protein, UniProt P41136 1-134)
chain: T1 sequence with V68P
- binding [8]: no binding

B6: Flag-Id2 (protein, UniProt P41136 1-134)
chain: T1 sequence
- binding [9]: binds

Other lines, results leading:

- binding [1]: binds
- binding [2]: binds
- binding [3]: binds
- binding [4]: binds
- binding [5]: binds
Molecule: myc-Akt (from UniProt P31749 1-480) (enzyme)

- binding [6]: binds
- binding [7]: binds weakly
B1: GFP-Id2 WT (HEK293T) (protein, UniProt P41136 1-134)
chain: T1 sequence

- binding [8]: no binding
B3: Id2-P51S (HLH domain mutant) (protein, UniProt P41136 1-134)
chain: T1 sequence with P51S

- binding [8]: binds
B7: GFP-Id2 S14D (PC12) (protein, UniProt P41136 1-134)
chain: T1 sequence with S14D

- binding [8]: binds
B8: GFP-Id2 S14A (PC12) (protein, UniProt P41136 1-134)
chain: T1 sequence with S14A

- binding [10]: binds
- binding [8]: binds
B9: GFP-Id2 WT (PC12) (protein, UniProt P41136 1-134)
chain: T1 sequence
